The supplement of paper PMC4604168 (melanoma cell lines)
Some of the results follow. Repeats are few or missing, and single values can be far off.

test system: MeWo; experiment: cell count relative to DMSO control; melanoma cells; higher = more viable cells; conditions: library dose: standard library concentration; 72 h
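Further: cells treated in 1,536-well plates, then fixed and DAPI-stained, with nuclei counted from automated high-throughput microscope images.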

Structure (SMILES)	cell count [%]
Nc1cccc2c1CN(C1CCC(=O)NC1=O)C2=O (centres undefined) [lenalidomide] + Cn1cc(/C=C2\C(=O)Nc3cccnc32)c2ccccc21 [GW441756] (first compound 5 µM, partner dose 2 µM)	80.1
Clc1ccc(Nc2nnc(Cc3ccncc3)c3ccccc23)cc1 [vatalanib] + C=CCn1c(=O)c2cnc(Nc3ccc(N4CCN(C)CC4)cc3)nc2n1-c1cccc(C(C)(C)O)n1 [MK1775] (first compound 10 µM, partner dose 0.1 µM)	72.7
COCC[n+]1c2c(n(Cc3cnccn3)c1C)C(=O)c1ccccc1C2=O + O=c1cc(-c2cccc3c2Sc2ccccc2S3)oc(N2CCOCC2)c1 [KU55933] (first compound 0.002 µM, partner dose 5 µM)	26.6
Cn1c(Nc2ccc(C(F)(F)F)cc2)nc2cc(Oc3ccnc(-c4ncc(C(F)(F)F)[nH]4)c3)ccc21 + O=C(CCCCCCC(=O)Nc1ccccc1)NO [vorinostat] (first compound 0.4 µM, partner dose 0.4 µM)	71.9
COCC[n+]1c2c(n(Cc3cnccn3)c1C)C(=O)c1ccccc1C2=O + COc1cc2ncnc(Nc3ccc(Oc4ccccc4)cc3)c2cc1OC [SrcI1] (first compound 0.002 µM, partner dose 10 µM)	17.5
COCC[n+]1c2c(n(Cc3cnccn3)c1C)C(=O)c1ccccc1C2=O + Cc1ccc(NC(=O)c2cccc(N(C)C)c2)cc1NC(=O)c1ccc(O)cc1 [ZM336372] (first compound 0.002 µM, partner dose 10 µM)	29.9
COCC[n+]1c2c(n(Cc3cnccn3)c1C)C(=O)c1ccccc1C2=O + CN(NC(=O)CC(=O)NN(C)C(=S)c1ccccc1)C(=S)c1ccccc1 [STA4783] (first compound 0.002 µM, partner dose 0.03 µM)	13.8
C#Cc1cccc(Nc2ncnc3cc(OCCOC)c(OCCOC)cc23)c1 [erlotinib] + Nc1cccc2c1CN(C1CCC(=O)NC1=O)C2=O [lenalidomide] (first compound 4 µM, partner dose 5 µM)	83.7
Nc1cccc2c1CN(C1CCC(=O)NC1=O)C2=O (centres undefined) [lenalidomide] + COC(=O)c1sccc1S(=O)(=O)Nc1ccc(Nc2ccccc2)cc1OC [GSK0660] (first compound 5 µM, partner dose 5 µM)	89.2
Nc1cccc2c1CN(C1CCC(=O)NC1=O)C2=O (centres undefined) [lenalidomide] + NC(=O)Nc1cc(-c2cccc(F)c2)sc1C(=O)N[C@H]1CCCNC1 [AZD7762] (first compound 5 µM, partner dose 0.1 µM)	75.5
COCC[n+]1c2c(n(Cc3cnccn3)c1C)C(=O)c1ccccc1C2=O + COc1ccc2c(c1)CCC1C2CCC2(C)C(NCCCCCCN3C(=O)C=CC3=O)CCC12 [U73122] (first compound 0.002 µM, partner dose 2 µM)	67.5
C#Cc1cccc(Nc2ncnc3cc(OCCOC)c(OCCOC)cc23)c1 [erlotinib] + COCC[n+]1c2c(n(Cc3cnccn3)c1C)C(=O)c1ccccc1C2=O [YM155] (first compound 4 µM, partner dose 0.002 µM)	25.1
Clc1ccc(Nc2nnc(Cc3ccncc3)c3ccccc23)cc1 [vatalanib] + CCc1ccc(CCOc2ccc(CC3SC(=O)NC3=O)cc2)nc1 [pioglitazone] (first compound 10 µM, partner dose 10 µM)	58.8
C#Cc1cccc(Nc2ncnc3cc(OCCOC)c(OCCOC)cc23)c1 [erlotinib] + CO[C@@H]1[C@H](N(C)C(=O)c2ccccc2)C[C@H]2O[C@]1(C)n1c3ccccc3c3c4c(c5c6ccccc6n2c5c31)C(=O)NC4 [Midostaurin] (first compound 4 µM, partner dose 0.4 µM)	64.8

test system: RPMI7951; experiment: as above; conditions: library dose: standard library concentration; 72 h

Structure (SMILES)	cell count [%]
COCC[n+]1c2c(n(Cc3cnccn3)c1C)C(=O)c1ccccc1C2=O + CCc1ccc(CCOc2ccc(CC3SC(=O)NC3=O)cc2)nc1 [pioglitazone] (first compound 0.002 µM, partner dose 10 µM)	42.1
Clc1ccc(Nc2nnc(Cc3ccncc3)c3ccccc23)cc1 [vatalanib] + Oc1cc(-c2nc(-c3ccccc3)[nH]c2-c2ccncc2)ccc1Cl [L779450] (first compound 10 µM, partner dose 1 µM)	64.5
Clc1ccc(Nc2nnc(Cc3ccncc3)c3ccccc23)cc1 [vatalanib] + Cn1cc(/C=C2\C(=O)Nc3cccnc32)c2ccccc21 [GW441756] (first compound 10 µM, partner dose 2 µM)	71.1
Nc1cccc2c1CN(C1CCC(=O)NC1=O)C2=O (centres undefined) [lenalidomide] + O=S(=O)(c1ccccc1)N(CC(F)(F)F)c1ccc(C(O)(C(F)(F)F)C(F)(F)F)cc1 [T0901317] (first compound 5 µM, partner dose 7 µM)	130
Nc1cccc2c1CN(C1CCC(=O)NC1=O)C2=O (centres undefined) [lenalidomide] + CN(C)S(=O)(=O)c1ccc2c(c1)/C(=C/c1cc3c([nH]1)CCCC3)C(=O)N2 [SU6656] (first compound 5 µM, partner dose 2 µM)	66.8
C#Cc1cccc(Nc2ncnc3cc(OCCOC)c(OCCOC)cc23)c1 [erlotinib] + COc1cc(Nc2ncc(F)c(Nc3ccc4c(n3)NC(=O)C(C)(C)O4)n2)cc(OC)c1OC [Tamatinib] (first compound 4 µM, partner dose 2 µM)	48.5
Nc1cccc2c1CN(C1CCC(=O)NC1=O)C2=O (centres undefined) [lenalidomide] + CC(C)(C)c1cnc(CSc2cnc(NC(=O)C3CCNCC3)s2)o1 [SNS-032] (first compound 5 µM, partner dose 0.05 µM)	30.2
O=C(CCCCCCC(=O)Nc1ccccc1)NO [vorinostat] + CC(C)(C)c1cnc(CSc2cnc(NC(=O)C3CCNCC3)s2)o1 [SNS-032] (first compound 0.4 µM, partner dose 0.05 µM)	39.2
Clc1ccc(Nc2nnc(Cc3ccncc3)c3ccccc23)cc1 [vatalanib] + O=C(Nc1ccccc1)c1cc([N+](=O)[O-])ccc1Cl [GW9662] (first compound 10 µM, partner dose 10 µM)	63.3
COCC[n+]1c2c(n(Cc3cnccn3)c1C)C(=O)c1ccccc1C2=O + COc1cc(N2CCC(N3CCN(C)CC3)CC2)ccc1Nc1ncc(Cl)c(Nc2ccccc2S(=O)(=O)C(C)C)n1 [NVP-TAE684] (first compound 0.002 µM, partner dose 0.4 µM)	37.8
O=C(CCCCCCC(=O)Nc1ccccc1)NO [vorinostat] + COc1ccc(-c2ccc3c(N4CCOCC4)nc(N4C[C@@H](C)O[C@@H](C)C4)nc3n2)cc1CO [KU0063794] (first compound 0.4 µM, partner dose 0.1 µM)	69.9
Cn1c(Nc2ccc(C(F)(F)F)cc2)nc2cc(Oc3ccnc(-c4ncc(C(F)(F)F)[nH]4)c3)ccc21 + CN(C)S(=O)(=O)c1ccc2c(c1)/C(=C/c1cc3c([nH]1)CCCC3)C(=O)N2 [SU6656] (first compound 0.4 µM, partner dose 2 µM)	35
Clc1ccc(Nc2nnc(Cc3ccncc3)c3ccccc23)cc1 [vatalanib] + OCCn1cc(-c2cnc3nnn(Cc4ccc5ncccc5c4)c3n2)cn1 [PF04217903] (first compound 10 µM, partner dose 5 µM)	60.7
Nc1cccc2c1CN(C1CCC(=O)NC1=O)C2=O (centres undefined) [lenalidomide] + COc1ccc2c(c1)CCC1C2CCC2(C)C(NCCCCCCN3C(=O)C=CC3=O)CCC12 [U73122] (first compound 5 µM, partner dose 2 µM)	36
Cn1c(Nc2ccc(C(F)(F)F)cc2)nc2cc(Oc3ccnc(-c4ncc(C(F)(F)F)[nH]4)c3)ccc21 + COc1cc(N2CCC(N3CCN(C)CC3)CC2)ccc1Nc1ncc(Cl)c(Nc2ccccc2S(=O)(=O)C(C)C)n1 [NVP-TAE684] (first compound 0.4 µM, partner dose 0.4 µM)	48.7
C#Cc1cccc(Nc2ncnc3cc(OCCOC)c(OCCOC)cc23)c1 [erlotinib] + COc1cc2ncnc(Nc3ccc(Oc4ccccc4)cc3)c2cc1OC [SrcI1] (first compound 4 µM, partner dose 10 µM)	27.1
C#Cc1cccc(Nc2ncnc3cc(OCCOC)c(OCCOC)cc23)c1 [erlotinib] + Cc1cc([N+](=O)[O-])ccc1NS(=O)(=O)c1cc(Cl)ccc1Cl [FH535] (first compound 4 µM, partner dose 5 µM)	83.7
OCc1c[nH]c2ccccc12 [Indole-3-carbinol] + C#Cc1cccc(Nc2ncnc3cc(OCCOC)c(OCCOC)cc23)c1 [erlotinib] (first compound 4 µM, partner dose 4 µM)	75.9
Clc1ccc(Nc2nnc(Cc3ccncc3)c3ccccc23)cc1 [vatalanib] + O=C(O)c1ccc(-c2c[nH]c3ncc(-c4ccccc4)cc23)cc1C1CCCC1 [GSK650394] (first compound 10 µM, partner dose 0.8 µM)	61
Cn1c(Nc2ccc(C(F)(F)F)cc2)nc2cc(Oc3ccnc(-c4ncc(C(F)(F)F)[nH]4)c3)ccc21 + CO[C@@H]1[C@H](N(C)C(=O)c2ccccc2)C[C@H]2O[C@]1(C)n1c3ccccc3c3c4c(c5c6ccccc6n2c5c31)C(=O)NC4 [Midostaurin] (first compound 0.4 µM, partner dose 0.4 µM)	25.6
